The subject of this data set is ATP. Put plainly: switch fluorescence ratio, 500 uM ATP over buffer (Cy3 cluster intensity, sum of 5 cycles each) (fold (ratio)); higher = stronger signal-on switching upon ATP binding; sequences stand for … in TCGTCGGCAGCGTCAGATGTGTATAAGAGACAGTTTTTTTTTTTTTTTTTTTTTTTTT…TC. The settings on record: aptamer strand: ATP DNA aptamer (quencher-CACCTGGGGGAGTATTGCGGAGGAAGG + anchor), 100 nM annealed; ATP concentration: 500 uM; one replicate. A digest of the protocol: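 Five buffer/ATP imaging cycles were run on Cy3-labelled switching-strand clusters on a modified Illumina MiSeq flow-cell, with NaOH stripping and re-annealing between cycles. In each cycle, clusters annealed to 100 nM quencher-labelled ATP aptamer were imaged in selection buffer, then after 15 min with 500 uM ATP at 22 °C. Per cluster, the fluorescence ratio is summed target-cycle over summed buffer-cycle Cy3 intensity, averaged per switch-domain sequence. Only clusters within 100-1000 RFU were kept.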

Switch fluorescence ratio data for 67 sequences are collected here from the supplement of paper PMC10126150.

Sequences with one replicate were seen in a single cluster, so their values are uncertain.
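Further: ATP exposure 15 min at 22 °C before imaging.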

As to GAGTCAACGA, the switch fluorescence ratio is 1.04. With TATTAGACAC the figure was 1.19; with ACTGGGACTT, 1.09; with GGAGCCAAGC, 1.02. With CGCGGTAGCC the figure was 0.968; with CCTATTAAAT, 0.972. With GAGGGACCA the figure was 1.04; with ATTGACAGCA, 1.06; with GCCCGTTGTT, 1.01.

For AAAGTGAGAG, the switch fluorescence ratio was determined as 1. With TGACTTACGA the figure was 1.45. On to GGTACCACAG, for which the switch fluorescence ratio stood at 1.01. Take TATTTAAGAC: the switch fluorescence ratio came out at 0.943.

Consider CATTAGTTAA, for which the switch fluorescence ratio is 1.01. With ATGAAGCGC the figure was 1.08; with GTTTGGCGAA, 1.02; with CCCATGGGAT, 0.998. For GCTTGGCTGC, the switch fluorescence ratio came to 1.05. Regarding AGTCTCTCTT, the switch fluorescence ratio came to 0.962. TAGTGCTGT: the switch fluorescence ratio amounted to 0.984.

Regarding TGTAGCTTTT, the switch fluorescence ratio was found to be 0.991. With CTAACCTAGA the figure was 1.06. In the case of AACGCTGTTA, the switch fluorescence ratio turned out to be 0.985. Next, TGACGTCAAG: 0.962; GCTGTATAGA: 1.04; AGAAGGCAGA: 1.01.

Take TCTAAGTGTT: the switch fluorescence ratio came out at 1.01. Next, CCAAGCACCC: 2.23; AGAGAGTCCA: 0.993. Next, CACCGCCCAG: 1.38; GTCGGATGTT: 0.986. Consider TACGTCCGAC, for which the switch fluorescence ratio is 1.44.

For the sequence TGGAGCGTCG, the switch fluorescence ratio turned out to be 0.984. Next, ATAGTCTGCT: 1.05. GCGTCCTTTT: the switch fluorescence ratio was 0.999.

Regarding TCAGGGCGGT, the switch fluorescence ratio stood at 0.919.

Take GCATTGACCC: the switch fluorescence ratio was 1.21.

In the case of CGGCACGGAC, the switch fluorescence ratio was 1.18. Next, GTGGACGCTG: 0.959; AAGCAGCTTG: 0.982. With ACAACGCCCT the figure was 1.15; with TTACGGATGC, 1.05. With CTGGACTCTG the figure was 0.967. For CGCCGTACAC, the switch fluorescence ratio was 1.29. With ACTGCCTTGG the figure was 1.01.

As for GATGCGAGCG, the switch fluorescence ratio is 1.01.

With AAAACCGGGC, the switch fluorescence ratio turned out to be 1.09.

Regarding TGGGACCCCT, the switch fluorescence ratio came to 0.998.

With CGTTTGATCG, the switch fluorescence ratio was 1.02.

As for ACGATGGTGC, the switch fluorescence ratio was 1.21.

As for GGCCGATTTC, the switch fluorescence ratio came out at 1.01. With AAGGCCGGGA the figure was 0.987; with TTAGGCTGAC, 1.06; with CTGGTGAGT, 0.996. Next, GGCCTTTAAA: 1.06; AACGCAAGTG: 1.05; AACGCGTTTT: 1.01. With CGCTATGTGT, the switch fluorescence ratio is 0.998.

As to GTTGACGCGA, the switch fluorescence ratio came to 1.55.

For the sequence ACTTCAATT, the switch fluorescence ratio came out at 0.983.

Take GATTAGTCT: the switch fluorescence ratio is 0.97.

For TGCCGGCTTG, the switch fluorescence ratio amounted to 1.01. With GTATTCACGG the figure was 1.02. With CGCCAGCTGT, the switch fluorescence ratio was 1.05. With TCTGCAAGTC the figure was 4.26. Next, TGGATATCTG: 1. With TTAGGTTAGC the figure was 0.979.
